Molecules are shown by their SMILES. The list shows a part of the results. Single values of this set are uncertain. Values with irradiation are relative to irradiated vehicle.

The subject of the assay is A549-Dual. Description: ISRE reporter (Lucia luciferase) activity, viability-corrected, relative to vehicle (fold change vs vehicle); higher = more activation of STING-IRF / NF-kB immune response reporter. The conditions noted are these: 10 µM; irradiation: 8 Gy/4 fr.
The compound `COc1cnc(NS(=O)(=O)c2ccc(N)cc2)nc1` [Sulfameter] returned an ISRE reporter of 0.763.
Then `NS(=O)(=O)c1cc(C2(O)NC(=O)c3ccccc32)ccc1Cl` (stereo not drawn) [Chlorthalidone], with 1.1.
Regarding `C[N+](C)(CCOc1ccccc1)Cc1ccccc1.O=C([O-])c1cc2ccccc2cc1O` [Bephenium Hydroxynaphthoate], the ISRE reporter is 0.89.
To `Br.CN1CCCC1Cc1c[nH]c2ccc(CCS(=O)(=O)c3ccccc3)cc12` (stereo not drawn) [Eletriptan HBr] belongs 0.702.
The compound `COC(=O)NC(C(=O)NC(Cc1ccccc1)C(O)CN(Cc1ccc(-c2ccccn2)cc1)NC(=O)C(NC(=O)OC)C(C)(C)C)C(C)(C)C` (stereo not drawn) [Atazanavir] displayed an ISRE reporter of 0.791.
Take `O=C(O)CCn1c2c(c3ccccc31)CC(NS(=O)(=O)c1ccc(F)cc1)CC2` (stereo not drawn) [Ramatroban]: the ISRE reporter was found to be 0.964.
The compound `O=C(NCc1c(F)cc(F)cc1F)c1cn2c(c(O)c1=O)C(=O)N1C3CCC(C3)OC1C2` (stereo not drawn) [Bictegravir] registered an ISRE reporter of 1.21.
Then `CC1(C)CC(=O)CC(C)(C)N1` [TriacetonaMine], with 1.38; and `CCN(CC)C(=O)Nc1ccc(OCC(O)CNC(C)(C)C)c(C(C)=O)c1.Cl` (stereo not drawn) [Celiprolol hydrochloride], with 1.06; and `O=C(NCC1CN(c2ccc(N3CCOCC3=O)cc2)C(=O)O1)c1ccc(Cl)s1` (stereo not drawn) [Rivaroxaban], with 0.696.
Then `CC1CC(C(=O)O)C2CCC3(C)C(=CCC4C5(C)CCC(O)C(C)(C)C5CCC43C)C2C1C` (stereo not drawn) [Ursolic Acid], with 1.28; and `COCC(=O)Nc1cc(Sc2ccccc2)ccc1N=C(NC(=O)OC)NC(=O)OC` [Febantel], with 0.606; and `O=C(CCCN1CCN(c2ccccn2)CC1)c1ccc(F)cc1` [Azaperone], with 0.72.
As for `CCCC1CC(C(=O)NC(C(C)O)C2OC(SC)C(O)C(O)C2O)N(C)C1.Cl.O` (stereo not drawn) [Lincomycin Hydrochloride Monohydrate], the ISRE reporter was 0.668.
For the compound `CC(OC(=O)OC1CCCCC1)OC(=O)C1=C(CSc2nnnn2CCN(C)C)CSC2C(NC(=O)Cc3csc(N)n3)C(=O)N12.Cl.Cl` (stereo not drawn) [Cefotiam Hexetil Hydrochloride], the ISRE reporter stood at 0.126.
Then `OC(Cn1cncn1)(Cn1cncn1)c1ccc(F)cc1F` [Fluconazole], with 0.713; and `COc1ccccc1OCC(O)CN1CCN(CC(=O)Nc2c(C)cccc2C)CC1` (stereo not drawn) [Ranolazine], with 0.517.
To `COc1ccc(CCNCC(O)COc2cccc(C)c2)cc1OC.Cl` (stereo not drawn) [Bevantolol hydrochloride] belongs 1.16; to `NC(C(=O)NC1C(=O)N2C(C(=O)O)=C(Cl)CSC12)c1ccccc1.O` (stereo not drawn) [Cefaclor], 0.841; to `CCCN1CCCCC1C(=O)Nc1c(C)cccc1C.CS(=O)(=O)O` (stereo not drawn) [Ropivacaine Mesilate], 0.499.
`C=CCNC(N)=S` [Allylthiourea] came in with an ISRE reporter of 0.776.
Then `Brc1c(NC2=NCCN2)ccc2nccnc12` [Brimonidine], with 0.25.
On to `Nc1ccc(S(=O)(=O)c2ccc(N)cc2)cc1` [Dapson], for which the ISRE reporter was determined as 0.771.
To `OCC1OC(OC2C(CO)OC(OC3C(CO)OC(O)C(O)C3O)C(O)C2O)C(O)C(O)C1O` (stereo not drawn) [Maltotriose] belongs 0.715; to `CCN(Cc1ccncc1)C(=O)C(CO)c1ccccc1` (stereo not drawn) [Tropicamide], 0.88; to `COc1cc2ccc(=O)oc2cc1O` [Scopoletin], 0.105.
Regarding `COC1C(OC(N)=O)C(O)C(Oc2ccc3c(O)c(NC(=O)c4ccc([O-])c(CC=C(C)C)c4)c(=O)oc3c2C)OC1(C)C.[Na+]` (stereo not drawn) [Novobiocin Sodium], the ISRE reporter is 0.545.
Then `CN1CCCC(n2nc(Cc3ccc(Cl)cc3)c3ccccc3c2=O)CC1.Cl` (stereo not drawn) [Azelastine HCl], with 0.749.
To `NS(=O)(=O)c1ccccc1` [Benzenesulfonamide] belongs 1.31; to `Cl.Clc1ccc2nsnc2c1NC1=NCCN1` [Tizanidine HCl], 0.761.
To `CO/N=C(/C(=O)NC1C(=O)N2C(C(=O)O)=C(CSC(=O)c3ccco3)CSC12)c1csc(N)n1.Cl` (stereo not drawn) [Ceftiofur HCl] belongs 0.71.
In turn, `CC(C[N+](C)(C)C)OC(N)=O.[Cl-]` (stereo not drawn) [Bethanechol chloride] showed an ISRE reporter of 0.969.
The compound `Nc1ccc(C(=O)O)c(O)c1` [4-Aminosalicylic acid] returned an ISRE reporter of 1.01.
